Results reported in PubChem BioAssay AID686978 (National Center for Advancing Translational Sciences (NCATS), 2013).
Several values for one entry are separate records, joined by “and”; a condition that tells them apart may be missing. Equal values may be shown once. Out of some 420,000 compounds screened, about 64,000 (15%) were called active. The inconclusive results got no clear call from the source; some entries with a clear call stand among them for comparison. Calls come from the whole dose curve; as a rule, active = well fitted inhibition curve with a large enough effect; inconclusive = small, poorly fitted or top-dose-only effect; inactive = flat fitted curve, though single readings scatter. A potency beside an inconclusive call is a rough fit, not a confirmed value.
% is set by controls: 0 for no effect and ±100 for the full control effect; potency is the fitted concentration of half-maximal effect; tags give direction and shape of the fitted curve.

Assay: qHTS for Inhibitors of human tyrosyl-DNA phosphodiesterase 1 (TDP1): qHTS in cells in absence of CPT; note: nearly all actives have a fitted effect of over 55% in size
Conditions: DT40 Tdp1-/- hTDP1 cells, no CPT, ATP luminescence, 48 h; activity change, negative = growth inhibition: at 46.2 µM (top of the series) unless noted
Outline: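 No-CPT arm: Tdp1-/-;hTDP1 DT40 cells (400/well) plus compounds, incubated ≥48 hr at 37 °C. Readout CellTiter-Glo luminescence.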
In the case of `O=C(COc1ccc(Br)cc1)N1CCc2ccccc2C1`, the activity change, negative = growth inhibition is reported as inconclusive: -30.6% [inhibitor]. For `Cc1ccc(CCNC(=O)NCc2noc3ccc(C)cc23)cc1`, the Potency was inconclusive: 23.1 µM [inhibitor, single point]. With `C=CCn1c(COc2ccccc2OC)nc2ccccc21` the Potency was inconclusive: 25.9 µM [inhibitor, single point]. With `Cc1cc(C)c(NC(=O)CS(=O)CC(=O)NCCN2CCCCCC2)c(C)c1` (configuration not stated) the “activity change, negative = growth inhibition” value was inactive: -25.2%. For `CC1CCC2(CC1)NC(=O)N(Cc1nc(-c3ccccc3)no1)C2=O` (configuration not stated), the Potency was inconclusive: 29.1 µM [inhibitor, partial curve, poor fit]. With `COc1ccc(S(=O)(=O)N2CCOCC2)cc1NC(=O)CCCOc1ccccc1` the “activity change, negative = growth inhibition” value was inactive: -23.2%. In the case of `CC(=O)c1cc(C#N)c(SCC(=O)Nc2nccs2)nc1C`, the Potency is reported as inconclusive: 23.1 µM [inhibitor, partial curve]. In the case of `O=C(NCc1cccnc1)C(=O)NCC1OCCCN1S(=O)(=O)c1ccc(Cl)cc1` (configuration not stated), the activity change, negative = growth inhibition is reported as inconclusive: -32.5% [inhibitor]. In the case of `Cc1ccc(S(=O)(=O)N2CCC(C(=O)NCC3CCCCC3)CC2)cc1`, the “activity change, negative = growth inhibition” value is reported as inactive: 1.49%. For `CCCCn1c(N)c(N(CC)C(=O)c2ccc(N(C)S(=O)(=O)c3ccc(C)cc3)cc2)c(=O)[nH]c1=O`, the “activity change, negative = growth inhibition” value was inactive: -0.183%. For `CC1(C(=O)NS(=O)(=O)c2cccc(Cl)c2)CCN1C(=O)Cc1ccc(Cl)cc1Cl` (configuration not stated), the “activity change, negative = growth inhibition” value was inactive: -13%. For `Cc1cccc(C(=O)NC(=S)NNC(=O)c2ccc(Cl)cc2)c1`, the Potency was inconclusive: 25.9 µM [inhibitor, single point]. In the case of `O=C(Nc1ccccc1Cl)c1cc(C2CCCCN2C(=O)OCCF)on1` (configuration not stated), the Potency is reported as inconclusive: 14.6 µM [inhibitor, single point]. In the case of `C=CCN(c1ccccc1OC)S(=O)(=O)c1cccc(C(=O)OCC(=O)N2CC(C)OC(C)C2)c1` (configuration not stated), the Potency is reported as inconclusive: 29.1 µM [inhibitor, partial curve, poor fit]. For `N#CCCN(Cc1cccnc1)CN1C(=O)c2ccccc2C1=O`, the “activity change, negative = growth inhibition” value was inactive: -2.68%. With `O=C(NC1=NCCS1)c1cc(-c2ccc(-c3ccccc3)cc2)nc2ccccc12` the Potency was inconclusive: 29.1 µM [inhibitor, single point]. In the case of `CCOC(=O)CC(N)c1cccc([N+](=O)[O-])c1` (configuration not stated), the “activity change, negative = growth inhibition” value is reported as inactive: 8.61%. With `COc1ccccc1N1CCN(Cc2ccc(-c3ccccc3[N+](=O)[O-])o2)CC1` the Potency was inconclusive: 25.9 µM [inhibitor, single point]. In the case of `Cn1c(=NC(=O)CN2C(=O)C3CC=CCC3C2=O)sc2ccccc21` (configuration not stated), the Potency is reported as inconclusive: 15.8 µM [inhibitor, single point] and inconclusive: 29.1 µM [inhibitor, single point]. With `O=C1NC(=O)C(c2cn(-c3ccccc3)nc2-c2ccc(F)cc2)N1` (configuration not stated) the Potency was inconclusive: 29.1 µM [inhibitor, single point]. In the case of `O=C(Nc1ccc2c(c1)OCO2)c1cccc(S(=O)(=O)N2CCCC2)c1`, the Potency is reported as inconclusive: 9.2 µM [inhibitor, partial curve]. With `C=CCC1(C(=O)N(C)Cc2ccccc2)CCN(C(=O)OC(C)(C)C)CC1` the Potency was inconclusive: 29.1 µM [inhibitor, single point]. For `Cc1cc(-c2ccc(C)c(S(=O)(=O)N3CCN(c4ccc([N+](=O)[O-])cc4)CC3)c2)on1`, the Potency was inconclusive: 7.31 µM [inhibitor, partial curve]. In the case of `COc1ccc(S(=O)(=O)N(CC(=O)NC2CC3CCC2C3)c2ccccc2OC)cc1` (configuration not stated), the Potency is reported as inconclusive: 23.1 µM [inhibitor, single point]. For `COc1ccc(Cn2c(=O)[nH]c3cc(C(=O)Nc4ccc(N5CCN(C)CC5)cc4)ccc32)cc1`, the Potency was inconclusive: 29.1 µM [inhibitor, single point]. For `COc1cc(-c2noc(C)c2/C=C/c2ccc(C(=O)O)cc2)cc(OC)c1OC`, the Potency was inconclusive: 23.1 µM [inhibitor, single point]. For `COc1ccc(OCC(=O)Nc2cccc(-c3nc4ccccc4[nH]3)c2)cc1`, the Potency was inconclusive: 29.1 µM [inhibitor, single point]. In the case of `COc1ccccc1C1=NOC(Cn2c(NCCOCCO)nc3c2c(=O)n(C)c(=O)n3C)C1` (configuration not stated), the Potency is reported as inconclusive: 23.1 µM [inhibitor, single point]. With `COCCn1c(C)cc(C(=O)COC(=O)Cc2n[nH]c(=O)c3ccccc23)c1C` the Potency was active: 20.6 µM. In the case of `O=S(=O)(Nc1ccc(-c2cn3c(n2)SCC3)cc1)c1cccs1`, the Potency is reported as inconclusive: 4.11 µM [inhibitor, partial curve]. In the case of `COc1ccc2[nH]cc(/C=C(/C#N)S(=O)(=O)c3ccccc3)c2c1`, the Potency is reported as inconclusive: 29.1 µM [inhibitor, single point]. In the case of `Cn1c2ccccc2c(=O)c2c(O)cccc21`, the “activity change, negative = growth inhibition” value is reported as inactive: -24.6%. For `CSc1ccc(CCNC(=O)C(C)n2nc(C)c3c(C)n(-c4ccccc4)nc3c2=O)cc1` (configuration not stated), the Potency was inconclusive: 29.1 µM [inhibitor, single point]. With `CCCc1ccc(Oc2c(-c3ccc(O)c(C)c3O)n[nH]c2C)cc1` the Potency was inconclusive: 29.1 µM [inhibitor, single point]. For `CCc1nc2c(OCC3COc4ccccc4O3)cccn2c1N(C)C(=O)c1ccc(OC)cc1` (configuration not stated), the Potency was inconclusive: 29.1 µM [inhibitor, single point]. With `O=C(Nc1ncc([N+](=O)[O-])s1)c1ccco1` the Potency was inconclusive: 11.6 µM [inhibitor, partial curve]. For `COc1cccc(CN(C)CC(=O)Nc2ccccc2C(C)C)c1`, the Potency was active: 16.4 µM. With `O=C1CCCN1CCC12CC3CC(CC(C3)C1)C2` the Potency was active: 20.6 µM. With `Nc1nc(-c2ccc(Cl)cc2)nc(-c2ccc(Cl)cc2)n1` the “activity change, negative = growth inhibition” value was inactive: -7.73%. With `Cc1cccc(CNC(=O)c2ccc(-c3nc(CS(=O)(=O)c4ccccc4)c(C)o3)cc2)c1` the Potency was inconclusive: 4.61 µM [inhibitor, full curve, poor fit]. In the case of `CCCC12CN3CC(C)(CN(C1)C3c1ccc3c(c1)OCO3)C2=O` (configuration not stated), the Potency is reported as inconclusive: 20.6 µM [inhibitor, single point]. In the case of `O=C(CC1Nc2ccccc2NC1=O)Nc1ccccc1` (configuration not stated), the Potency is reported as inconclusive: 29.1 µM [inhibitor, single point].
